Results are given in words; binding and its absence hold for the method and conditions named. For part of these data: In cells and extracts the contact can be indirect. Some results given as binding are weak or reduced against the parent protein; the word gives no strength.
What was measured:
[1] = target: Fbxw5 (Sf21, co-expressed with Skp1) (human) (UniProt Q969U6); test: co-purification; F-box protein and Skp1 co-expressed in Sf21 cells by co-infection, purified together via Ni-NTA and Superdex 200
[2] = target: endogenous Fbxw5 (human (endogenous in RPE-1)) (UniProt Q969U6); test: co-IP; endogenous proteins; anti-Fbxw5 IgG or unspecific rabbit IgG with Protein A agarose, lysis buffer with 0.4% NP-40; Fig 2D: RPE-1 cells asynchronous or arrested 24 h with 2 mM HU, 10 µM RO-3306 or 75 ng/ml nocodazole; Fig EV1D: cell line not stated
Flag-Fbxw5 (human) [3] = target: Flag-Fbxw5 (human) (UniProt Q969U6); test: co-IP; exogenously expressed Flag-Fbxw5 precipitated with anti-Flag antibodies, eluted with FLAG-peptide, TCA precipitated; endogenous partners detected by Western blot (Fig EV1C)
Flag-Fbxw5 (human) [4] = target: Flag-Fbxw5 (human) (UniProt Q969U6); test: co-IP; tagged proteins expressed in Hek293T cells, extracts subjected to anti-Flag IP (FLAG-agarose, 3 h; lysis buffer 20 mM HEPES pH 7.3, 110 mM K-acetate, 0.2% NP-40), Western blot

Chains of the proteins cited; added tags and fusions are not shown. Lines headed by an entry give the natural chain unless they say otherwise; changes in a name come on top. A line that says so, or that is headed by a name, gives the form on record, which may keep a tag or linker. Residues count along the entry.
UniProt Q969U6: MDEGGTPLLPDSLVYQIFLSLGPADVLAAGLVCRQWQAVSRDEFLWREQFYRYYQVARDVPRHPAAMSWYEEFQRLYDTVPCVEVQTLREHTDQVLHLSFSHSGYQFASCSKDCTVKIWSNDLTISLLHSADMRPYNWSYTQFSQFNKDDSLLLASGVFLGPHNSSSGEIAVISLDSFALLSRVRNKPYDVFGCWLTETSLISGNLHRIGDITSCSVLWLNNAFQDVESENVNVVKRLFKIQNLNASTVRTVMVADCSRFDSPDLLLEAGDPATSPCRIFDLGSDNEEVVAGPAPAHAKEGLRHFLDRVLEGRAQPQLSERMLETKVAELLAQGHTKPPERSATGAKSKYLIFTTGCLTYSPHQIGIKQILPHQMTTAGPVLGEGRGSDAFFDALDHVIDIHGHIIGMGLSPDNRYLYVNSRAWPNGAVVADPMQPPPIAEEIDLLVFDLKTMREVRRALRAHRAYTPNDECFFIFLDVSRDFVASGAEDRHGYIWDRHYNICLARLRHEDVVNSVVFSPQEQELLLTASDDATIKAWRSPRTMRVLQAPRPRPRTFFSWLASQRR
Skp1ΔΔ (P63208, form named): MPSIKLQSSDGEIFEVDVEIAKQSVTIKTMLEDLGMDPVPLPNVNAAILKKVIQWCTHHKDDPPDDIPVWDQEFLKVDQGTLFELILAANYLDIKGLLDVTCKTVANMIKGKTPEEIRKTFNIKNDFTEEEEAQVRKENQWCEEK
UniProt O14964: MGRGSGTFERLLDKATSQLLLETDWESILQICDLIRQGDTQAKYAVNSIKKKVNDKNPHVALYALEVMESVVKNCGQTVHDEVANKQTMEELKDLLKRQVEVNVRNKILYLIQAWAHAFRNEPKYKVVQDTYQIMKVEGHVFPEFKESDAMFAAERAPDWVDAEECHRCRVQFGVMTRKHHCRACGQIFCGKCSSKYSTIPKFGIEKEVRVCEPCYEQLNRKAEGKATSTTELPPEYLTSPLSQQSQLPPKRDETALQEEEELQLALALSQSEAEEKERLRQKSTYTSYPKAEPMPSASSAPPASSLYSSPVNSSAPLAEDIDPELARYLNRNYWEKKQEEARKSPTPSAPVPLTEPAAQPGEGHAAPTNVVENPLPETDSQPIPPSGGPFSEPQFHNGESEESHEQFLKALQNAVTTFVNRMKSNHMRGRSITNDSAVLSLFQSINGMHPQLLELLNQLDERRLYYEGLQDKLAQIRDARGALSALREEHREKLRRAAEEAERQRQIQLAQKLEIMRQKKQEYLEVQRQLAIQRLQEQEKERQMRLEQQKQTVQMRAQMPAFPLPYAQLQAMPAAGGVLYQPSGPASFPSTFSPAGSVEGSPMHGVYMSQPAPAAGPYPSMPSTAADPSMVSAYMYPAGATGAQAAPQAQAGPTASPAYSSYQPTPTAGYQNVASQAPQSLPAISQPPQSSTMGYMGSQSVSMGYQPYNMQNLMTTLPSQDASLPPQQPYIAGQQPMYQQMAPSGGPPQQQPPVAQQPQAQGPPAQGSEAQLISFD
UniProt O00139, residues 28-706: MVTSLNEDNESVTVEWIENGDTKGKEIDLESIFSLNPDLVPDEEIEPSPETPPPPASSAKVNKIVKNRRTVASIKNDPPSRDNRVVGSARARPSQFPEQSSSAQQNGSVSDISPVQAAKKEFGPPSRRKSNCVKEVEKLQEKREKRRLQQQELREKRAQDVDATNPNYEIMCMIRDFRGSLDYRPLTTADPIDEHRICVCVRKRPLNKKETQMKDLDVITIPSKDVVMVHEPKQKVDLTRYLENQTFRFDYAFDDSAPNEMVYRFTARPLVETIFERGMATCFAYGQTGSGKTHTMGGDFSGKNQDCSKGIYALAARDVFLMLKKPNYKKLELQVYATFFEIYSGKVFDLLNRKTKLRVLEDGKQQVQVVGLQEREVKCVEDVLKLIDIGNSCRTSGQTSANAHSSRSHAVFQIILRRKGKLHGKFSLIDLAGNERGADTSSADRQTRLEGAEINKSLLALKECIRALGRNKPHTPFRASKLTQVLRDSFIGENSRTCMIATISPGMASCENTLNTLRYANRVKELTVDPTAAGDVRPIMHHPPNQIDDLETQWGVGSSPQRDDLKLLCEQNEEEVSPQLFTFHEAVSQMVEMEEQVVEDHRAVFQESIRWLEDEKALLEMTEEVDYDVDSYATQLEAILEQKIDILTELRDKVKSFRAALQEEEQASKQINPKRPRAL
UniProt P09211: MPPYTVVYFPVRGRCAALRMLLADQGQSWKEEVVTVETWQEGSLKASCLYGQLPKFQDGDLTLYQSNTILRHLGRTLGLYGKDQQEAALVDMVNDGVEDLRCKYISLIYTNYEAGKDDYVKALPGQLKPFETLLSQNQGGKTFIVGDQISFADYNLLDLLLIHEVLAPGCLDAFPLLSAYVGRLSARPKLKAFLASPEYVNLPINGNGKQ
UniProt Q8N4N8: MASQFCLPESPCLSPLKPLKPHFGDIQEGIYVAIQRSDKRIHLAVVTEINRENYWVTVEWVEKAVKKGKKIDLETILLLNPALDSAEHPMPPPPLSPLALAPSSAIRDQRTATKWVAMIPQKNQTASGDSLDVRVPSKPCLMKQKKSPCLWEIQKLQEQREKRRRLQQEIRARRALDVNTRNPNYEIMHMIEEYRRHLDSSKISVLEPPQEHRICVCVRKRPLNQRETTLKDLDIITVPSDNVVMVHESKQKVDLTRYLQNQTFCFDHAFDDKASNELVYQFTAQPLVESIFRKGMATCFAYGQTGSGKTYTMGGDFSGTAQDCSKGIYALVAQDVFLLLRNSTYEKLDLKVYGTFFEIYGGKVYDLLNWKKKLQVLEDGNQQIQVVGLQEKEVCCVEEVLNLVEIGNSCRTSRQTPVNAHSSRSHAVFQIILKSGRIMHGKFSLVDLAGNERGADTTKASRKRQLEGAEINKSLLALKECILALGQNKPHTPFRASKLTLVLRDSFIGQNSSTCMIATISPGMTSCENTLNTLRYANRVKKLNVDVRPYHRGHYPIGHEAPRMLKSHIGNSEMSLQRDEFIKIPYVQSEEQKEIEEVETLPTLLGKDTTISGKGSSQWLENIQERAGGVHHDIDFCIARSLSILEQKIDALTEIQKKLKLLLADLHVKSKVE

binding (Flag-Fbxw5 (human) [3])	binding (Flag-Fbxw5 (human) [4])	Substance	also measured
–	–	Skp1ΔΔ (from UniProt P63208 1-163)	binding [1]: binds
binds	–	endogenous HGS (from UniProt O14964 1-777)	binding [2]: binds
–	binds weakly	HA-Kif2a (from UniProt O00139-1 1-679)	–
binds	–	endogenous GSTP1 (from UniProt P09211 1-210)	–
–	binds	HA-Kif2b (from UniProt Q8N4N8 1-673)	–

Source: PMC8441365
